From patent US20180021277A1, “ANTI-VIRULENCE COMPOSITIONS AND METHODS” (priority 2012, published 2018)

Columns and labels:
MRSA strain USA300 [1] = experiment: microbe, parasite or virus in culture; conditions: for Hemolysis / hemolysis at 10 µg/mL / hemolysis at 1 µg/mL: DMSO control = 100; for hemolysis at 10 µg/mL / hemolysis at 1 µg/mL: Staphylococcus aureus, Erythrocyte, in Oryctolagus cuniculus
MRSA strain USA300 [2] = experiment: microbe, parasite or virus in culture; conditions: for Growth: DMSO control = 100; for activity at 10 µg/mL / activity at 1 µg/mL: Staphylococcus aureus, read-out: Growth

## CCc1cc(C(=O)COc2ccc(F)cc2)c(O)cc1O [4b-6]
MRSA strain USA300 [1]; 1 μg/mL compound
  Hemolysis: 85.1 ± 7.0%
MRSA strain USA300 [1]; 10 μg/mL compound
  Hemolysis: 11.1 ± 0.2%
MRSA strain USA300 [2]; 1 μg/mL compound
  Growth: 102.3%
MRSA strain USA300 [2]; 10 μg/mL compound
  Growth: 100.2%

## Cc1cc(C(=O)COc2ccccc2C)c(O)cc1O [4d-9]
MRSA strain USA300 [1]; 10 μg/mL compound
  hemolysis at 10 µg/mL: 43 ± 8.4%
MRSA strain USA300 [2]
  activity at 10 µg/mL: 102%

## O=C(COc1ccc(F)c(F)c1)c1ccc(O)cc1O [4a-14]
MRSA strain USA300 [1]; 10 μg/mL compound
  hemolysis at 10 µg/mL: 46.5 ± 2.7%
MRSA strain USA300 [2]
  activity at 10 µg/mL: 106%

## COc1ccc(OCC(=O)c2c(O)cc(O)cc2O)cc1 [4c-26]
MRSA strain USA300 [1]; 10 μg/mL compound
  Hemolysis: 70.5 ± 7.1%
MRSA strain USA300 [2]; 10 μg/mL compound
  Growth: 106.5%

## COC(=O)c1cccc(OCC(=O)c2ccc(O)cc2O)c1 [4a-28]
MRSA strain USA300 [1]; 10 μg/mL compound
  hemolysis at 10 µg/mL: 24.2 ± 2%
MRSA strain USA300 [2]
  activity at 10 µg/mL: 100%

## CCc1cc(C(=O)COc2ccc(C(=O)OC)cc2)c(O)cc1O [4b-29]
MRSA strain USA300 [1]; 1 μg/mL compound
  Hemolysis: 144.8 ± 20.6%
MRSA strain USA300 [1]; 10 μg/mL compound
  Hemolysis: 4.5 ± 0.3%
MRSA strain USA300 [2]; 1 μg/mL compound
  Growth: 106.1%
MRSA strain USA300 [2]; 10 μg/mL compound
  Growth: 90.2%

## CC(C)c1ccc(OCC(=O)c2ccc(O)cc2O)cc1 [4a-19]
MRSA strain USA300 [1]; 1 μg/mL compound
  hemolysis at 1 µg/mL: 80.4 ± 10.1%
MRSA strain USA300 [1]; 10 μg/mL compound
  hemolysis at 10 µg/mL: -2.3%
MRSA strain USA300 [2]
  activity at 1 µg/mL: 104%
  activity at 10 µg/mL: 8.3%

## O=C(O)c1cccc(OCC(=O)c2ccc(O)cc2O)c1 [4a-24]
MRSA strain USA300 [1]; 10 μg/mL compound
  hemolysis at 10 µg/mL: 80.5 ± 6.5%
MRSA strain USA300 [2]
  activity at 10 µg/mL: 102%

## CC(C)c1ccc(OCC(=O)c2c(O)cc(O)cc2O)cc1 [4c-19]
MRSA strain USA300 [1]; 1 μg/mL compound
  hemolysis at 1 µg/mL: 127 ± 13.6%
MRSA strain USA300 [1]; 10 μg/mL compound
  hemolysis at 10 µg/mL: 7.1 ± 0.3%
MRSA strain USA300 [2]
  activity at 1 µg/mL: 111%
  activity at 10 µg/mL: 95.9%

## COC(=O)c1cccc(OCC(=O)c2c(O)cc(O)cc2O)c1 [4c-28]
MRSA strain USA300 [1]; 10 μg/mL compound
  hemolysis at 10 µg/mL: 90.5 ± 5.9%
MRSA strain USA300 [2]
  activity at 10 µg/mL: 103%

## Cc1cc(C(=O)COc2ccc(F)cc2)c(O)cc1O [4d-6]
MRSA strain USA300 [1]; 10 μg/mL compound
  hemolysis at 10 µg/mL: 33.6 ± 10.2%
MRSA strain USA300 [2]
  activity at 10 µg/mL: 104%

## CCc1cc(C(=O)COc2ccccc2Cl)c(O)cc1O [4b-2]
MRSA strain USA300 [1]; 1 μg/mL compound
  Hemolysis: 80.6 ± 0.4%
MRSA strain USA300 [1]; 10 μg/mL compound
  Hemolysis: 0.9 ± 0.0%
MRSA strain USA300 [2]; 1 μg/mL compound
  Growth: 102.4%
MRSA strain USA300 [2]; 10 μg/mL compound
  Growth: 78.9%

## CCc1cc(C(=O)COc2cccc(F)c2)c(O)cc1O [4b-1]
MRSA strain USA300 [1]; 1 μg/mL compound
  hemolysis at 1 µg/mL: 88.5 ± 12.8%
MRSA strain USA300 [1]; 10 μg/mL compound
  hemolysis at 10 µg/mL: 22.4 ± 3.9%
MRSA strain USA300 [2]
  activity at 1 µg/mL: 93.5%
  activity at 10 µg/mL: 97.7%

## Cc1ccc(OCC(=O)c2c(O)cc(O)cc2O)cc1 [4c-11]
MRSA strain USA300 [1]; 1 μg/mL compound
  hemolysis at 1 µg/mL: 99.9 ± 14.1%
MRSA strain USA300 [1]; 10 μg/mL compound
  hemolysis at 10 µg/mL: 10.8 ± 1.4%
MRSA strain USA300 [2]
  activity at 1 µg/mL: 111%
  activity at 10 µg/mL: 108%

## CCCCCCc1cc(C(=O)COc2ccccc2C(=O)OC)c(O)cc1O [4f-27]
MRSA strain USA300 [1]; 1 μg/mL compound
  Hemolysis: 72.6 ± 7.0%
MRSA strain USA300 [1]; 10 μg/mL compound
  Hemolysis: 7.2 ± 0.7%
MRSA strain USA300 [2]; 1 μg/mL compound
  Growth: 99.3%
MRSA strain USA300 [2]; 10 μg/mL compound
  Growth: 92.7%

## CCc1cc(C(=O)COc2cccc(C)c2)c(O)cc1O [4b-10]
MRSA strain USA300 [1]; 1 μg/mL compound
  hemolysis at 1 µg/mL: 66.7 ± 3.4%
MRSA strain USA300 [1]; 10 μg/mL compound
  hemolysis at 10 µg/mL: 1.6 ± 0.1%
MRSA strain USA300 [2]
  activity at 1 µg/mL: 102%
  activity at 10 µg/mL: 86%

## CCCc1cc(C(=O)COc2cccc(F)c2)c(O)cc1O [4e-1]
MRSA strain USA300 [1]; 1 μg/mL
  inhibition of rabbit blood hemolysis compared to diflunisal: greater inhibition of rabbit blood hemolysis
MRSA strain USA300 [1]; 1 μg/mL compound
  hemolysis at 1 µg/mL: 36.9 ± 1.1%
MRSA strain USA300 [1]; 10 μg/mL compound
  hemolysis at 10 µg/mL: 1.6 ± 0.2%
MRSA strain USA300 [2]; 1 μg/mL
  effect on the growth of the bacteria: without affecting the growth of the bacteria
MRSA strain USA300 [2]
  activity at 1 µg/mL: 104%
  activity at 10 µg/mL: 55.2%

## O=C(COc1ccc(I)cc1)c1ccc(O)cc1O [4a-8]
MRSA strain USA300 [1]; 1 μg/mL compound
  hemolysis at 1 µg/mL: 74.8 ± 9.9%
MRSA strain USA300 [1]; 10 μg/mL compound
  hemolysis at 10 µg/mL: 1.4%
MRSA strain USA300 [2]
  activity at 1 µg/mL: 94.2%
  activity at 10 µg/mL: 69.6%

## COC(=O)c1ccccc1OCC(=O)c1ccc(O)cc1O [4a-27]
MRSA strain USA300 [1]; 10 μg/mL compound
  hemolysis at 10 µg/mL: 58.9 ± 5.1%
MRSA strain USA300 [2]
  activity at 10 µg/mL: 102%

## O=C(COc1ccc(F)cc1F)c1c(O)cc(O)cc1O [4c-12]
MRSA strain USA300 [1]; 10 μg/mL compound
  Hemolysis: 44.0 ± 1.7%
MRSA strain USA300 [2]; 10 μg/mL compound
  Growth: 119.3%

## Cc1ccc(OCC(=O)c2cc(C)c(O)cc2O)cc1 [4d-11]
MRSA strain USA300 [1]; 1 μg/mL compound
  hemolysis at 1 µg/mL: 248 ± 41.9%
MRSA strain USA300 [1]; 10 μg/mL compound
  hemolysis at 10 µg/mL: 14.3 ± 2.8%
MRSA strain USA300 [2]
  activity at 1 µg/mL: 103%
  activity at 10 µg/mL: 84.2%

## CCc1cc(C(=O)COc2cc(F)cc(F)c2)c(O)cc1O [4b-15]
MRSA strain USA300 [1]; 1 μg/mL compound
  hemolysis at 1 µg/mL: 49.3 ± 3.7%
MRSA strain USA300 [1]; 10 μg/mL compound
  hemolysis at 10 µg/mL: -0.4%
MRSA strain USA300 [2]
  activity at 1 µg/mL: 107%
  activity at 10 µg/mL: 63.9%

## Cc1cc(C(=O)COc2ccc([N+](=O)[O-])cc2)c(O)cc1O [4d-22]
MRSA strain USA300 [1]; 10 μg/mL compound
  Hemolysis: 98.8 ± 11.0%
MRSA strain USA300 [2]; 10 μg/mL compound
  Growth: 101.7%

## Cc1cc(C(=O)COc2cc(F)c(F)cc2F)c(O)cc1O [4d-16]
MRSA strain USA300 [1]; 10 μg/mL compound
  Hemolysis: 28.3 ± 6.6%
MRSA strain USA300 [2]; 10 μg/mL compound
  Growth: 100.5%

## Cc1ccccc1OCC(=O)c1ccc(O)cc1O [4a-9]
MRSA strain USA300 [1]; 1 μg/mL compound
  hemolysis at 1 µg/mL: 113 ± 4.4%
MRSA strain USA300 [1]; 10 μg/mL compound
  hemolysis at 10 µg/mL: 14 ± 0.6%
MRSA strain USA300 [2]
  activity at 1 µg/mL: 104%
  activity at 10 µg/mL: 89.8%

## O=C(COc1cccc(F)c1)c1ccc(O)cc1O [4a-1]
MRSA strain USA300 [1]; 1 μg/mL compound
  hemolysis at 1 µg/mL: 81 ± 4.4%
MRSA strain USA300 [1]; 10 μg/mL compound
  hemolysis at 10 µg/mL: 10.1 ± 0.5%
MRSA strain USA300 [2]
  activity at 1 µg/mL: 98.7%
  activity at 10 µg/mL: 99.4%

## O=C(COc1cc(F)c(F)cc1F)c1ccc(O)cc1O [4a-16]
MRSA strain USA300 [1]; 10 μg/mL compound
  Hemolysis: 45.1 ± 1.6%
MRSA strain USA300 [2]; 10 μg/mL compound
  Growth: 110.5%

## CCCCCCc1cc(C(=O)COc2ccc(I)cc2)c(O)cc1O [4f-8]
MRSA strain USA300 [1]; 10 μg/mL compound
  Hemolysis: 25.3 ± 1.9%
MRSA strain USA300 [2]; 10 μg/mL compound
  Growth: 100.2%

## COc1ccc(OCC(=O)c2ccc(O)cc2O)cc1 [4a-26]
MRSA strain USA300 [1]; 10 μg/mL compound
  hemolysis at 10 µg/mL: 48.2 ± 2.6%
MRSA strain USA300 [2]
  activity at 10 µg/mL: 104%
